Test results: PubChem BioAssay AID652104 (National Center for Advancing Translational Sciences (NCATS), 2013)
Hit rate of the full screen: of about 410,000 compounds, about 7,200 (1.8%) were called active. The shares of active, inactive and inconclusive entries below differ from those in the screen. The call rests on the fitted dose curve; in most records, active means well fitted activation curve with a large enough effect; inconclusive means small, poorly fitted or top-dose-only effect, or another doubt; inactive means no such curve, though single readings can be large or run the other way. Potencies of inconclusive entries are left out as doubtful fits.

Test: qHTS of TDP-43 Inhibitors; further: nearly all actives have a fitted effect of over 50% in size
Details: TDP-43 expressing yeast growth rescue, BacTiter-Glo, 24 h; series mostly up to 46.1 µM
Procedure, shortened: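 Cell-based yeast growth screen: TDP-43 expression induced in galactose, inoculum OD600=0.02 after raffinose pregrowth to mid-log. Read-out BacTiter-Glo luminescence at 24 hr, 30 deg C; inhibition of toxicity seen as signal increase.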
Potency means the concentration at half of the fitted maximal effect; tags describe the fitted curve by direction and shape.

Question: Which Potency does the source give for `O=C(Cn1nnc2ccccc21)c1cccc([N+](=O)[O-])c1` here?
Answer: The Potency was inconclusive [activator, partial curve].

Question: Which Potency does the source give for `CCC(=O)OCC(=O)c1cc(C)n(-c2ccc(Br)cc2)c1C` here?
Answer: Its Potency is inconclusive [activator, single point].

Question: Which Potency does the source give for `CCN(c1ccccc1)c1ncnc2c1cnn2-c1ccccc1` here?
Answer: The Potency was inconclusive [activator, partial curve].

Question: Which Potency does the source give for `CCc1nc2ccc(C(=O)NCCc3ccco3)cc2nc1CC` here?
Answer: Its Potency is inconclusive [activator, single point].

Question: With `CS(=O)(=O)c1ccc(-c2sc3ccccc3c2C#CCCO)cc1` as the compound, how does the Potency read?
Answer: The Potency was inconclusive [activator, partial curve].

Question: Which Potency does the source give for `CC1CCCN(C(=O)C2COc3ccccc3O2)C1` (stereo not drawn) here?
Answer: The Potency was inconclusive [activator, single point].

Question: With `Cc1ccc(F)cc1NC(=S)NCCc1ccccc1` as the compound, how does the Potency read?
Answer: Its Potency is inconclusive [activator, partial curve].

Question: For `CCCCn1nnnc1C(c1ccccc1)N1CCN(c2ccc(C)cc2)CC1` (stereo not drawn), which Potency is on record?
Answer: The Potency was active: 35.5 µM.

Question: With `COc1ccc(S(=O)(=O)N(Cc2nc(-c3ccc(Cl)cc3)no2)C2CCCCC2)cc1` as the compound, how does the Potency read?
Answer: Its Potency is “inactive”.

Question: With `O=C(c1ccccc1Br)N1CCC(c2nc3ccccc3o2)CC1` as the compound, how does the Potency read?
Answer: Its Potency is inconclusive [activator, partial curve].

Question: With `Cc1ccc(/C=N/NC(=O)CSCc2ccc(Cl)cc2)cc1` as the compound, how does the Potency read?
Answer: Its Potency is inconclusive [activator, partial curve].

Question: With `Cc1nn(C)c2c1c(-c1ccccc1)cc(=O)n2CC(=O)NC(C)C` as the compound, how does the Potency read?
Answer: The Potency was “inactive”.

Question: Which Potency does the source give for `Cc1cccc(N2CCN(C(=O)c3cnn4c(C(F)F)cc(-c5ccccc5)nc34)CC2)c1C` here?
Answer: The Potency was inconclusive [activator, partial curve].

Question: With `Cc1ccc(CN2CCCn3nc(C(=O)NCCc4ccccc4Cl)cc3C2=O)cc1` as the compound, how does the Potency read?
Answer: Its Potency is inconclusive [activator, partial curve].

Question: For `CC(C)(CO)NC(=O)c1ccc2c(c1)C(=O)c1ccccc1-2`, which Potency is on record?
Answer: The Potency was “inactive”.

Question: For `Cc1ccc(CNC(=O)c2ccc3c(O)c(S(=O)(=O)c4ccc(Cl)cc4)c(=O)[nH]c3c2)cc1`, which Potency is on record?
Answer: Its Potency is “inactive”.

Question: Which Potency does the source give for `COc1ccc(NC(=O)C(c2ccncc2)n2c(=O)c(-c3ccccc3)nc3ccccc32)cc1` (stereo not drawn) here?
Answer: The Potency was inconclusive [activator, full curve].

Question: For `CSc1ccc(Cn2c(C)c(C(=O)NCc3cccc(C)c3)sc2=O)cc1`, which Potency is on record?
Answer: Its Potency is inconclusive [activator, single point].

Question: Which Potency does the source give for `CCSc1nc2cc(S(=O)(=O)N3CCOCC3)ccc2o1` here?
Answer: The Potency was “inactive”.

Question: With `CN1CCC(N(C)C(=O)c2cccc(S(=O)(=O)N3CCc4ccccc43)c2)CC1` as the compound, how does the Potency read?
Answer: The Potency was “inactive”.

Question: With `COc1ccc2sc(-c3ccc(N(C)C)cc3)c(C#CC(C)(C)O)c2c1` as the compound, how does the Potency read?
Answer: Its Potency is “inactive”.

Question: Which Potency does the source give for `N#Cc1c(NC(=O)C2CCCO2)sc2c1CCCCCC2` (stereo not drawn) here?
Answer: The Potency was inconclusive [activator, partial curve].

Question: For `CC(=O)Nc1nc2ccc(Br)cc2s1`, which Potency is on record?
Answer: Its Potency is active: 12.6 µM.

Question: Which Potency does the source give for `Cc1ccsc1C(=O)Nc1ccccc1N1CCOCC1` here?
Answer: Its Potency is inconclusive [activator, full curve].

Question: With `Cc1ccc(NC(=O)c2ccc(=O)n(Cc3ccccc3C)c2)c(C)c1` as the compound, how does the Potency read?
Answer: Its Potency is “inactive”.

Question: Which Potency does the source give for `Cc1ccccc1NC(=S)C1=C(O)c2sccc2N(C)S1(=O)=O` here?
Answer: The Potency was inconclusive [activator, single point].

Question: For `CCOc1ccc(NS(=O)(=O)c2ccc(NS(=O)(=O)c3ccc(SC)cc3)cc2)cc1`, which Potency is on record?
Answer: Its Potency is “inactive”.

Question: With `O=C(c1cc(C2CC2)nn1-c1ccccc1)N1CCN(Cc2ccc(Cl)cc2)CC1` as the compound, how does the Potency read?
Answer: Its Potency is “inactive”.

Question: For `Cc1cc(C(=O)O/N=C(\N)c2ccc(C(C)(C)C)cc2)no1`, which Potency is on record?
Answer: Its Potency is inconclusive [activator, partial curve].

Question: For `CCCOc1ccc(CSc2ncn[nH]2)cc1`, which Potency is on record?
Answer: The Potency was inconclusive [activator, single point].

Question: Which Potency does the source give for `COCC(C)Nc1ncnc2c1cnn2-c1ccc(C)c(C)c1` (stereo not drawn) here?
Answer: The Potency was inconclusive [activator, single point].

Question: For `COc1ccc(-n2nc(C(=O)NCc3ccc(F)cc3Cl)c3c4ccccc4n(C)c3c2=O)cc1Cl`, which Potency is on record?
Answer: Its Potency is “inactive”.

Question: Which Potency does the source give for `CCCn1c2ccccc2c2nnc(SCC(=O)OC)nc21` here?
Answer: Its Potency is inconclusive [activator, single point].

Question: With `O=S(=O)(NC1CC2CCC1C2)c1ccc2c(c1)OCCO2` (stereo not drawn) as the compound, how does the Potency read?
Answer: The Potency was inconclusive [activator, full curve].

Question: Which Potency does the source give for `FC(F)(F)c1ccccc1Cc1c(-c2ccco2)nc2ccc(Br)cn12` here?
Answer: The Potency was inconclusive [activator, partial curve].

Question: With `O=C(Cn1nc2ccccc2n1)N/N=C/c1cc([N+](=O)[O-])ccc1O` as the compound, how does the Potency read?
Answer: The Potency was “inactive”.

Question: Which Potency does the source give for `COCCNC(=O)CN1C(=O)c2cccnc2Oc2ccc(Cl)cc21` here?
Answer: Its Potency is “inactive”.

Question: For `O=[N+]([O-])c1nn(-c2cccc(Cl)c2)n(O)c1=NCc1cccnc1`, which Potency is on record?
Answer: Its Potency is active: 11.2 µM.

Question: With `CN(Cc1ccccc1)c1oc(COc2ccccc2F)nc1C#N` as the compound, how does the Potency read?
Answer: Its Potency is inconclusive [activator, partial curve].

Question: For `C/C(=N\NC(=O)c1ccc(C)cc1)c1c(C)[nH]n(-c2ccccc2)c1=O`, which Potency is on record?
Answer: Its Potency is inconclusive [activator, partial curve, poor fit].

Question: Which Potency does the source give for `CCOC(=O)COn1c(=O)c(-c2cc3ccccc3o2)[n+]([O-])c2ccccc21` here?
Answer: The Potency was inconclusive [activator, partial curve].

Question: For `O=C(Nc1cccc2ccccc12)c1cccc([N+](=O)[O-])c1`, which Potency is on record?
Answer: The Potency was inconclusive [activator, partial curve].

Question: With `O=C(Nc1ccc(Cl)cc1)c1sccc1-n1cccc1` as the compound, how does the Potency read?
Answer: Its Potency is inconclusive [activator, partial curve].

Question: Which Potency does the source give for `Cc1ccc2c(c1)N(CC(=O)N(Cc1ccccn1)Cc1ccco1)C(=O)C(C(C)C)O2` (stereo not drawn) here?
Answer: Its Potency is inconclusive [activator, single point].

Question: Which Potency does the source give for `COc1ccc(CNC(=O)CSc2c3c(nc4ccc(Cl)cc24)CCCC3)cc1` here?
Answer: The Potency was inconclusive [activator, full curve].

Question: With `CCCCOC(=O)CSc1n[nH]c(=O)[nH]c1=O` as the compound, how does the Potency read?
Answer: The Potency was “inactive”.

Question: With `COc1cccc(-c2nn3c(-c4ccco4)nnc3s2)c1` as the compound, how does the Potency read?
Answer: Its Potency is active: 7.08 µM.

Question: With `COc1ccc(Nc2c3c(nc4nncn24)CCC3)cc1OC` as the compound, how does the Potency read?
Answer: Its Potency is inconclusive [activator, full curve, poor fit].

Question: Which Potency does the source give for `Cc1ccc(C)c(S(=O)(=O)N2CCN(C(=O)Nc3ccccc3)CC2)c1` here?
Answer: Its Potency is inconclusive [activator, single point].

Question: Which Potency does the source give for `CC1CCN(C(=O)C2COc3ccccc3C2)CC1` (stereo not drawn) here?
Answer: The Potency was inconclusive [activator, partial curve].

Question: With `O=C(Nc1ccc(F)c(Cl)c1)c1cc(C2CCCN(C(=O)CCc3ccccc3)C2)on1` (stereo not drawn) as the compound, how does the Potency read?
Answer: Its Potency is active: 28.2 µM.

Question: Which Potency does the source give for `O=C(CCCn1c(=O)c2cccn2c2ccccc21)NCc1ccccc1Br` here?
Answer: Its Potency is inconclusive [activator, single point].

Question: With `COc1ccc(S(=O)(=O)NCCOc2ccc(Cl)cc2)cc1` as the compound, how does the Potency read?
Answer: Its Potency is inconclusive [activator, partial curve].

Question: Which Potency does the source give for `O=C(Nc1ccccc1N1CCN(C(=O)c2ccccc2)CC1)c1ccc(Br)o1` here?
Answer: Its Potency is inconclusive [activator, single point].

Question: Which Potency does the source give for `COc1ccc(-c2nc(CNS(=O)(=O)c3cccc(F)c3)cs2)cc1` here?
Answer: The Potency was active: 12.6 µM.

Question: Which Potency does the source give for `O=[N+]([O-])c1cc(-c2nc(-c3ccccc3)no2)ccc1N1CCOCC1` here?
Answer: Its Potency is “inactive”.

Question: For `COc1ccc(-c2nc(CCNC(=O)c3ccc(Br)o3)cs2)cc1`, which Potency is on record?
Answer: The Potency was active: 12.6 µM.

Question: For `CCc1cccc(CC)c1NC(=O)CCS(=O)(=O)c1ccc2c(c1)CCN2C(C)=O`, which Potency is on record?
Answer: Its Potency is “inactive”.

Question: For `COc1ccc(/C=C/C(=O)OCC(=O)NC(C)CCc2ccccc2)cc1OC` (stereo not drawn), which Potency is on record?
Answer: The Potency was inconclusive [activator, partial curve].

Question: For `CCCCc1cc(=O)oc2cc(C)cc(OCC(=O)NCC3CCC(C(=O)O)CC3)c12` (stereo not drawn), which Potency is on record?
Answer: The Potency was inconclusive [activator, partial curve].

Question: Which Potency does the source give for `CC1(C)CC(NC(=O)c2ccccc2NS(=O)(=O)c2ccc(Br)cc2)CC(C)(C)N1` here?
Answer: The Potency was “inactive”.

Question: Which Potency does the source give for `Cc1ccc(C)c(N2CCN(S(=O)(=O)c3c(C)noc3/C=C/N(C)C)CC2)c1` here?
Answer: Its Potency is inconclusive [activator, single point].

Question: For `COc1ccc(S(=O)(=O)N2CCCCC2)cc1NC(=O)c1ccco1`, which Potency is on record?
Answer: The Potency was “inactive”.

Question: With `COc1ccc(-c2cc(-c3ccccc3)c(C#N)c(S(C)=O)n2)cc1` (stereo not drawn) as the compound, how does the Potency read?
Answer: Its Potency is active: 17.8 µM.

Question: Which Potency does the source give for `Nc1ncnc2c1ncn2[C@H]1CC[C@@H](CO)O1` here?
Answer: The Potency was active: 12.6 µM.

Question: With `CCOC(=O)c1ccccc1NC1c2ccccc2C(=O)N1c1cc(C)ccn1` (stereo not drawn) as the compound, how does the Potency read?
Answer: Its Potency is inconclusive [activator, single point].

Question: For `CCOc1ccc2nc(SCC(=O)NNC(=O)c3ccco3)c(C)cc2c1`, which Potency is on record?
Answer: Its Potency is “inactive”.

Question: With `O=C1c2c(-c3ccc(Br)cc3)noc2CCN1Cc1cn(C2CCCC2)nn1` as the compound, how does the Potency read?
Answer: Its Potency is inconclusive [activator, partial curve].

Question: For `COc1ccc(CCC(=O)Nc2ccc3c(c2)OCO3)cc1`, which Potency is on record?
Answer: The Potency was inconclusive [activator, partial curve].

Question: For `COC(=O)C(=Cc1ccccc1[N+](=O)[O-])C(=O)OC`, which Potency is on record?
Answer: Its Potency is active: 15.8 µM.

Question: With `COc1ccc(OCCNc2cc(N3CCOCC3)ccc2[N+](=O)[O-])cc1` as the compound, how does the Potency read?
Answer: Its Potency is inconclusive [activator, single point].

Question: Which Potency does the source give for `CCCCN1C(=O)C(CC(=O)NCCCCc2ccccc2)CC(C(=O)N2CCCCCC2)=C1C` (stereo not drawn) here?
Answer: Its Potency is “inactive”.

Question: With `CC1CCN(C(=O)Cn2cc(SCC(=O)NCC3CCCO3)c3ccccc32)CC1` (stereo not drawn) as the compound, how does the Potency read?
Answer: Its Potency is “inactive”.
